The list shows a part of the results.
Tests used:
Test in all cases: glycan array binding signal (z-score within array); higher = stronger binding
Conditions in all cases: glycan notation: IUPAC condensed, linker removed; mutation: H84T
[1] = target: Neu5Ac(a2-3)Gal(b1-4)GlcNAc(b1-3)[Neu5Ac(a2-3)Gal(b1-4)GlcNAc(b1-6)]GalNAc
Summary of the method: (§1)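 Glycan array data came from 3228 arrays in the Consortium for Functional Glycomics database, and only arrays with an available protein sequence were kept. Glycan names were put into IUPAC-condensed notation, and columns mapping to the same glycan were averaged. The binding signal is a within-array Z-score, averaged across arrays of one protein sequence run at different concentrations or buffers and across linkers. A negative Z-score can be read as non-binding.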

[2] = target: Neu5Ac(a2-3)Gal(b1-4)GlcNAc(b1-6)GalNAc
Summary of the method: as §1

[3] = target: Neu5Ac(a2-3)Gal(b1-4)GlcNAc(b1-6)[Gal(b1-3)]GalNAc
Summary of the method: as §1

[4] = target: Neu5Ac(a2-3)Gal(b1-4)GlcNAc(b1-6)[Neu5Ac(a2-3)Gal(b1-3)]GalNAc
Summary of the method: as §1

[5] = target: Neu5Ac(a2-3)Gal(b1-4)GlcNAc6S
Summary of the method: as §1

[6] = target: Neu5Ac(a2-3)Gal(b1-4)[Fuc(a1-3)]GlcNAc
Summary of the method: as §1

[7] = target: Neu5Ac(a2-3)Gal(b1-4)[Fuc(a1-3)]GlcNAc(b1-2)Man
Summary of the method: as §1

[8] = target: Neu5Ac(a2-3)Gal(b1-4)[Fuc(a1-3)]GlcNAc(b1-3)Gal
Summary of the method: as §1

[9] = target: Neu5Ac(a2-3)Gal(b1-4)[Fuc(a1-3)]GlcNAc(b1-3)Gal(b1-4)GlcNAc
Summary of the method: as §1

[10] = target: Neu5Ac(a2-3)Gal(b1-4)[Fuc(a1-3)]GlcNAc(b1-3)Gal(b1-4)[Fuc(a1-3)]GlcNAc(b1-3)Gal(b1-4)[Fuc(a1-3)]GlcNAc
Summary of the method: as §1

[11] = target: Neu5Ac(a2-3)Gal(b1-4)[Fuc(a1-3)]GlcNAc(b1-3)GalNAc
Summary of the method: as §1

[12] = target: Neu5Ac(a2-3)Gal(b1-4)[Fuc(a1-3)]GlcNAc(b1-6)[Gal(b1-3)]GalNAc
Summary of the method: as §1

[13] = target: Neu5Ac(a2-3)Gal(b1-4)[Fuc(a1-3)]GlcNAc(b1-6)[Neu5Ac(a2-3)Gal(b1-3)]GalNAc
Summary of the method: as §1

[14] = target: Neu5Ac(a2-3)Gal(b1-4)[Fuc(a1-3)]GlcNAc6S
Summary of the method: as §1

[15] = target: Neu5Ac(a2-3)Gal6S(b1-4)GlcNAc
Summary of the method: as §1

[16] = target: Neu5Ac(a2-3)Gal6S(b1-4)[Fuc(a1-3)]GlcNAc
Summary of the method: as §1

Neu5Ac(a2-3)GalNAc = target: Neu5Ac(a2-3)GalNAc
Summary of the method: as §1

[17] = target: Neu5Ac(a2-3)GalNAc(b1-4)GlcNAc
Summary of the method: as §1

[18] = target: Neu5Ac(a2-3)[GalNAc(b1-4)]Gal(b1-4)Glc
Summary of the method: as §1

[19] = target: Neu5Ac(a2-3)[GalNAc(b1-4)]Gal(b1-4)GlcNAc
Summary of the method: as §1

[20] = target: Neu5Ac(a2-3)[GalNAc(b1-4)]Gal(b1-4)GlcNAc(b1-3)GalNAc
Summary of the method: as §1

[21] = target: Neu5Ac(a2-3)[Neu5Ac(a2-6)]GalNAc
Summary of the method: as §1

Neu5Ac(a2-6)Gal = target: Neu5Ac(a2-6)Gal
Summary of the method: as §1

[22] = target: Neu5Ac(a2-6)Gal(b1-3)GlcNAc(b1-3)[Gal(b1-4)GlcNAc(b1-6)]Gal(b1-4)Glc
Summary of the method: as §1

Neu5Ac(a2-6)Gal(b1-4)Glc = target: Neu5Ac(a2-6)Gal(b1-4)Glc
Summary of the method: as §1

[23] = target: Neu5Ac(a2-6)Gal(b1-4)GlcNAc
Summary of the method: as §1

[24] = target: Neu5Ac(a2-6)Gal(b1-4)GlcNAc(b1-2)Man
Summary of the method: as §1

[25] = target: Neu5Ac(a2-6)Gal(b1-4)GlcNAc(b1-2)Man(a1-3)Man(b1-4)GlcNAc(b1-4)GlcNAc
Summary of the method: as §1

[26] = target: Neu5Ac(a2-6)Gal(b1-4)GlcNAc(b1-2)Man(a1-3)[Gal(b1-4)GlcNAc(b1-2)Man(a1-6)]Man(b1-4)GlcNAc(b1-4)GlcNAc
Summary of the method: as §1

[27] = target: Neu5Ac(a2-6)Gal(b1-4)GlcNAc(b1-2)Man(a1-3)[GlcNAc(b1-2)Man(a1-6)]Man(b1-4)GlcNAc(b1-4)GlcNAc
Summary of the method: as §1

[28] = target: Neu5Ac(a2-6)Gal(b1-4)GlcNAc(b1-2)Man(a1-3)[GlcNAc(b1-4)][Neu5Ac(a2-6)Gal(b1-4)GlcNAc(b1-2)Man(a1-6)]Man(b1-4)GlcNAc(b1-4)GlcNAc
Summary of the method: as §1

[29] = target: Neu5Ac(a2-6)Gal(b1-4)GlcNAc(b1-2)Man(a1-3)[Man(a1-6)]Man(b1-4)GlcNAc(b1-4)GlcNAc
Summary of the method: as §1

[30] = target: Neu5Ac(a2-6)Gal(b1-4)GlcNAc(b1-2)Man(a1-3)[Neu5Ac(a2-3)Gal(b1-4)GlcNAc(b1-2)Man(a1-6)]Man(b1-4)GlcNAc(b1-4)GlcNAc
Summary of the method: as §1

[31] = target: Neu5Ac(a2-6)Gal(b1-4)GlcNAc(b1-2)Man(a1-3)[Neu5Ac(a2-6)Gal(b1-4)GlcNAc(b1-2)Man(a1-6)]Man(b1-4)GlcNAc(b1-4)GlcNAc
Summary of the method: as §1

[32] = target: Neu5Ac(a2-6)Gal(b1-4)GlcNAc(b1-2)Man(a1-3)[Neu5Ac(a2-6)Gal(b1-4)GlcNAc(b1-2)Man(a1-6)]Man(b1-4)GlcNAc(b1-4)[Fuc(a1-6)]GlcNAc
Summary of the method: as §1

[33] = target: Neu5Ac(a2-6)Gal(b1-4)GlcNAc(b1-2)Man(a1-6)Man(b1-4)GlcNAc(b1-4)GlcNAc
Summary of the method: as §1

[34] = target: Neu5Ac(a2-6)Gal(b1-4)GlcNAc(b1-2)Man(a1-6)[Gal(b1-4)GlcNAc(b1-2)Man(a1-3)]Man(b1-4)GlcNAc(b1-4)GlcNAc
Summary of the method: as §1

[35] = target: Neu5Ac(a2-6)Gal(b1-4)GlcNAc(b1-2)Man(a1-6)[GlcNAc(b1-2)Man(a1-3)]Man(b1-4)GlcNAc(b1-4)GlcNAc
Summary of the method: as §1

[36] = target: Neu5Ac(a2-6)Gal(b1-4)GlcNAc(b1-2)Man(a1-6)[Man(a1-3)]Man(b1-4)GlcNAc(b1-4)GlcNAc
Summary of the method: as §1

[37] = target: Neu5Ac(a2-6)Gal(b1-4)GlcNAc(b1-2)[Neu5Ac(a2-6)Gal(b1-4)GlcNAc(b1-4)]Man(a1-3)[GlcNAc(b1-4)][Neu5Ac(a2-6)Gal(b1-4)GlcNAc(b1-2)[Neu5Ac(a2-6)Gal(b1-4)GlcNAc(b1-6)]Man(a1-6)]Man(b1-4)GlcNAc(b1-4)GlcNAc
Summary of the method: as §1

[38] = target: Neu5Ac(a2-6)Gal(b1-4)GlcNAc(b1-2)[Neu5Ac(a2-6)Gal(b1-4)GlcNAc(b1-4)]Man(a1-3)[GlcNAc(b1-4)][Neu5Ac(a2-6)Gal(b1-4)GlcNAc(b1-4)Man(a1-6)]Man(b1-4)GlcNAc(b1-4)GlcNAc
Summary of the method: as §1

[39] = target: Neu5Ac(a2-6)Gal(b1-4)GlcNAc(b1-2)[Neu5Ac(a2-6)Gal(b1-4)GlcNAc(b1-6)]Man(a1-6)[Neu5Ac(a2-6)Gal(b1-4)GlcNAc(b1-2)Man(a1-3)][GlcNAc(b1-4)]Man(b1-4)GlcNAc(b1-4)GlcNAc
Summary of the method: as §1

[40] = target: Neu5Ac(a2-6)Gal(b1-4)GlcNAc(b1-3)Gal(b1-3)GlcNAc
Summary of the method: as §1

[41] = target: Neu5Ac(a2-6)Gal(b1-4)GlcNAc(b1-3)Gal(b1-4)GlcNAc
Summary of the method: as §1

[42] = target: Neu5Ac(a2-6)Gal(b1-4)GlcNAc(b1-3)Gal(b1-4)GlcNAc(b1-2)Man(a1-3)[Neu5Ac(a2-6)Gal(b1-4)GlcNAc(b1-3)Gal(b1-4)GlcNAc(b1-2)Man(a1-6)]GalNAc
Summary of the method: as §1

B1: Banana lectin (Musa acuminata) (protein)
chain: MNGAIKVGAWGGNGGSAFDMGPAYRIISVKIFSGDVVDGVDVTFTYYGKTETRHYGGSGGTPHEIVLQEGEYLVGMAGEVANYTGAVVLGKLGFSTNKKAYGPFGNTGGTPFSLPIAAGKISGFFGRGGKFLDAIGVYLEPLEHHHHHH
glycan array binding signal (z-score) [1]: -0.091 | glycan array binding signal (z-score) [2]: -0.172 | glycan array binding signal (z-score) [3]: -0.143 | glycan array binding signal (z-score) [4]: -0.184 | glycan array binding signal (z-score) [5]: -0.184 | glycan array binding signal (z-score) [6]: -0.19 | glycan array binding signal (z-score) [7]: -0.188 | glycan array binding signal (z-score) [8]: -0.16 | glycan array binding signal (z-score) [9]: -0.173 | glycan array binding signal (z-score) [10]: -0.183 | glycan array binding signal (z-score) [11]: -0.13 | glycan array binding signal (z-score) [12]: -0.16 | glycan array binding signal (z-score) [13]: -0.176 | glycan array binding signal (z-score) [14]: -0.163 | glycan array binding signal (z-score) [15]: -0.176 | glycan array binding signal (z-score) [16]: -0.193 | glycan array binding signal (z-score) (Neu5Ac(a2-3)GalNAc): -0.177 | glycan array binding signal (z-score) [17]: -0.191 | glycan array binding signal (z-score) [18]: -0.183 | glycan array binding signal (z-score) [19]: -0.172 | glycan array binding signal (z-score) [20]: -0.176 | glycan array binding signal (z-score) [21]: -0.174 | glycan array binding signal (z-score) (Neu5Ac(a2-6)Gal): -0.173 | glycan array binding signal (z-score) [22]: -0.195 | glycan array binding signal (z-score) (Neu5Ac(a2-6)Gal(b1-4)Glc): -0.192 | glycan array binding signal (z-score) [23]: -0.205 | glycan array binding signal (z-score) [24]: -0.153 | glycan array binding signal (z-score) [25]: -0.163 | glycan array binding signal (z-score) [26]: -0.199 | glycan array binding signal (z-score) [27]: -0.159 | glycan array binding signal (z-score) [28]: -0.16 | glycan array binding signal (z-score) [29]: 0.399 | glycan array binding signal (z-score) [30]: -0.141 | glycan array binding signal (z-score) [31]: -0.164 | glycan array binding signal (z-score) [32]: -0.15 | glycan array binding signal (z-score) [33]: -0.146 | glycan array binding signal (z-score) [34]: -0.134 | glycan array binding signal (z-score) [35]: -0.188 | glycan array binding signal (z-score) [36]: 1.33 | glycan array binding signal (z-score) [37]: -0.159 | glycan array binding signal (z-score) [38]: -0.177 | glycan array binding signal (z-score) [39]: -0.174 | glycan array binding signal (z-score) [40]: -0.188 | glycan array binding signal (z-score) [41]: -0.205 | glycan array binding signal (z-score) [42]: -0.094
